Results from PubChem BioAssay AID485344 (National Center for Advancing Translational Sciences (NCATS), 2010).
Hit rate of the full screen: of about 340,000 compounds, about 6,900 (2%) were called active. Rule as the data show it: active = inhibition above about 30%; inactive = below that, where a call was filed. This is a selection; strong and weak results do not stand in their true shares. Where no call is shown, the source filed none.

target: D(2) dopamine receptor (Homo sapiens) (UniProt P14416); test: HTS Assay for Allosteric Antagonists of the Human D2 Dopamine Receptor: Primary Screen for Antagonists; details: HEK293 TREx D2 cells, calcium flux, dopamine EC80; at 10 µM; stronger effect = higher value; also: 0% is about no effect
In short: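 Dopamine at EC80 is the agonist stimulus; test compounds precede it by 180 s. Calcium flux read kinetically in a force-coupled, inducible HEK293 T-REx D2 cell line.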

UniProt P14416, sequence (P14416 whole entry, looked up): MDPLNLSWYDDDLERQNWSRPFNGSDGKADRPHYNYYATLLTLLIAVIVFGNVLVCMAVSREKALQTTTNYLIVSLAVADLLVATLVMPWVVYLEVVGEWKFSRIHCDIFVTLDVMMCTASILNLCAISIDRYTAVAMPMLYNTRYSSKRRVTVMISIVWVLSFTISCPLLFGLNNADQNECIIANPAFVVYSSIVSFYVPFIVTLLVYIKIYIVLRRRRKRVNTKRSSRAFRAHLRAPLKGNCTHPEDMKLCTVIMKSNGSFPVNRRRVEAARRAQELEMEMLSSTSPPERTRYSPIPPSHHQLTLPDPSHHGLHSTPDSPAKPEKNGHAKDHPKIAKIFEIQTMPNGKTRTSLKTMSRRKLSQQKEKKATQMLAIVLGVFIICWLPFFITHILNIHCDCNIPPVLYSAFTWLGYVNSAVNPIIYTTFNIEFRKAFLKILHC

SMILES | inhibition
Cc1cc2n(n1)C(c1ccccc1)CC(c1ccc(Br)cc1)=N2 (stereo unspecified) | active: 51.6%
COc1ccc(Cn2ccc3nc(C)c(C(=O)Nc4ccc(F)cc4)cc3c2=O)cc1 | -11.2%
COCCCNC(=O)c1[nH]c2cc(OC)ccc2c1Sc1ccc(C)cc1 | 26.2%
CCn1cc(C(=O)NCCc2ccc(Cl)cc2)c(=O)c2cc(S(=O)(=O)N3CCc4ccccc4C3)ccc21 | 8.37%
Cc1ccc(-n2nnc(-c3nsc(NC(=O)c4ccccc4C)n3)c2C)cc1Cl | -1.41%
O=C(Nc1ccc(F)cc1)N1CCN(c2ccc3nnc(-c4ccc(F)cc4)n3n2)CC1 | -1.14%
COc1cccc(CN2C(=O)N(c3ccc(C)cc3)C(=O)C2CC(=O)Nc2cc(OC)cc(OC)c2)c1 (stereo unspecified) | -10.4%
Cc1ccc(CNC(=O)C2CCN(C(=O)c3ccc(-n4ccc5ccccc54)s3)CC2)cc1 | -7.14%
CCOC(=O)CC(NC(=O)CCc1c(C)nc2c(-c3ccccc3)c(C)nn2c1C)c1ccc(C)cc1 (stereo unspecified) | -8.61%
COc1ccc(-c2cn3c(n2)sc2cc(C(=O)NCc4cccs4)ccc23)cc1 | -14.1%
COc1ccc(-c2c3c(=O)n(C)c(=O)n(C)c3cn2-c2cccc(N)c2)cc1 | 0.353%
COc1cc(-c2noc(CSc3nc(-c4ccc(F)cc4)cc(=O)[nH]3)n2)cc(OC)c1OC | -11.3%
COc1ccccc1NC(=O)Cn1cnc2c(nc3n2CCCCC3)c1=O | -7.51%
Cn1c(=O)c2c(nc(OCc3cccnc3)n2Cc2c(F)cccc2Cl)n(C)c1=O | active: 43.3%
CCC1CCC(C(=O)NC(C(=O)NCCN(CC(C)C)CC(C)C)C(C)C)CC1 (stereo unspecified) | 6.12%
CC(C)(C)c1ccc(CSc2nc3c(c(=O)[nH]2)CCCC3)cc1 | 8.49%
O=C(Nc1ccc(Cl)c(C(F)(F)F)c1)C1CCCN(S(=O)(=O)c2cccc3cccnc23)C1 (stereo unspecified) | 2.2%
Cc1ccccc1CNC(=O)c1ccccc1NC(=O)c1nsc2ccccc12 | 5.66%
CC1CCN(S(=O)(=O)c2ccc3c(c2)c(=O)c(C(=O)NCc2ccc(Cl)cc2)cn3C)CC1 | -13.4%
COc1ccccc1NC(=O)C(C)OC(=O)CCNS(=O)(=O)c1ccc(C)c(C)c1 (stereo unspecified) | active: 40%
COc1ccccc1NC(=O)c1oc2ccccc2c1NC(=O)C(C)C | -15.7%

SMILES | inhibition
CC(C)(C)C1CCC(OCC(O)CN2CCN(c3ccccn3)CC2)CC1 (stereo unspecified) | active: 63.5%
COc1cccc(CN2CCN(Cc3ccc(O)c(OC)c3)CC2CCO)c1 (stereo unspecified) | active: 36.3%
O=C1CCc2cc(S(=O)(=O)NCc3ccc(Cl)cc3)cc3c2N1CC3 | 3.52%
COc1cccc(-c2nnc(-c3cc4cc(Cl)ccc4oc3=O)o2)c1 | -15.4%
O=C(O)c1n[nH]c2c1CCCC2 | active: 56.9%
Cc1ccccc1Cc1c(C)nc2nc(SCC(=O)NCCCN3CCCCC3)nn2c1C | active: 75.4%
COc1ccc(-c2nc3scc(CCNS(=O)(=O)c4c(C)noc4C)n3n2)cc1OC | -18.6%
CCOC(=O)c1c(S(=O)(=O)NCC(=O)N2CCN(c3cccc(Cl)c3)CC2)c(C)n(C)c1C | -18.5%
COc1cccc(CNC(=O)c2[nH]c3cc(C)ccc3c2Sc2ccccc2)c1 | 10.1%
COc1cccc(-c2nnc3n(Cc4ccc(C)cc4)c(=O)c4ccccc4n23)c1O | 20%
CCCCN(Cc1cccs1)S(=O)(=O)c1cc(-c2cc(C)no2)ccc1C | -11.7%
CCN1CCN(c2csc3ccc(F)cc3c2=O)CC1 | 13.1%
O=C(NCCc1ccccc1)c1cc(-c2ccc(Br)cc2)on1 | 20.3%
CCOC(=O)c1c(C)oc2ncnc(N3CCN(c4ccc(C)cc4C)CC3)c12 | 0.983%
Cc1sc2ncn(CC(=O)Nc3ccc(F)cc3Cl)c(=O)c2c1S(=O)(=O)N1CCN(c2ncccn2)CC1 | 17.8%
CCOC(=O)c1cccc(-n2nnc3c(sc4nc(C)c(Br)c(C)c43)c2=O)c1 | -14.1%
COc1ccccc1N1CCN(C(=O)c2c(-c3c(Cl)cccc3Cl)noc2C)CC1 | active: 40%
CCOC(=O)c1ccccc1NC(=O)Cn1c(=O)n(CCC(=O)NCc2ccccc2OC)c(=O)c2ccccc21 | 9.56%
COc1ccc(NC(=O)c2ccc3c(SCC(=O)O)c4c(nc3c2)CCCC4)cc1OC | 5.99%
CCCOc1ccc(C(=O)Nc2ccc3oc(-c4ccc5ccccc5c4)nc3c2)cc1 | -8.48%
CC(=O)c1cccc(NC(=O)CSc2nnc3ccc(-c4ccc(F)cc4)nn23)c1 | -10.5%

SMILES | inhibition
CN(C)c1ccc(CNC(=O)c2cnc3sc(N4CCCC4)nn3c2=O)cc1 | -14.7%
Cc1c(Br)c([N+](=O)[O-])nn1C(C)C(=O)Nc1ccc2c(c1)OCO2 (stereo unspecified) | active: 40.4%
COCCCNC(=O)c1[nH]c2ccccc2c1Sc1ccc(C)cc1 | -5.36%
CC1CCCCC1Nc1ncnc2sccc12 (stereo unspecified) | active: 36.4%
Cc1ccccc1NC(=O)Cn1c(=O)n(CCCCCC(=O)NCc2ccccc2Cl)c(=O)c2sccc21 | -3.34%
CCS(=O)(=O)N1CCc2cc(C(=O)NCc3ccc(Cl)cc3)ccc21 | 2.28%
Cc1ccc(NC(=O)/C=C/c2ccc(Cl)cc2)c(Br)c1 | 4.52%
COc1cc(C2CC(=O)c3c([nH]c(C(=O)OCc4ccc(C)cc4)c3C)C2)cc(OC)c1OC (stereo unspecified) | 15.9%
Cc1cccc(C)c1NCc1n[nH]c(=S)n1-c1ccccc1 | active: 51.3%
CCOC(=O)c1ccccc1NC(=O)Cn1c(=O)n(CCC(=O)N2CCc3ccccc3C2)c(=O)c2ccccc21 | -12.1%
Cc1cccc(C(c2sc3nc(-c4ccco4)nn3c2O)N2CCN(Cc3ccccc3)CC2)c1 (stereo unspecified) | -5.15%
COc1ccccc1-c1nnc(C2CCN(C(=O)c3cccc(Cl)c3)CC2)o1 | -15.3%
CC(C)OCCCNC(=O)Cc1ccc(F)cc1 | active: 57.1%
COc1cccc(CNC(=O)CSc2nc(=O)[nH]c3c2CCC3)c1 | -14%
CCCN(C(=O)C(=O)Nc1ccc2nc3n(c(=O)c2c1)CCCCC3)c1ccc(OCC)cc1 | 9.47%
O=C(CN1CCc2ccccc21)NC(=O)NC1CCCCC1 | active: 32.6%
O=C(c1ccccc1)C1CN(Cc2ccccc2)CCC1(O)c1ccccc1 (stereo unspecified) | active: 45.3%
CCOc1ccccc1C(=O)Nc1cccc2ccc(C)nc12 | 7.11%
Cc1cccc2nc(-c3ccc(N(C)C)cc3)c(Nc3ccc4c(c3)OCO4)n12 | -14.7%
